Consider 87 molecules from publication PMC4336329 (PLoS ONE, 2015).

The campaign covered roughly 310,000 compounds. About 2,200 (0.71%) showed an effect of 50% or more. The effect is printed as a negative number. The list shows a part of the results.

Sequence of human ether-à-go-go-related gene (hERG) potassium channel (Q12809 whole entry, looked up): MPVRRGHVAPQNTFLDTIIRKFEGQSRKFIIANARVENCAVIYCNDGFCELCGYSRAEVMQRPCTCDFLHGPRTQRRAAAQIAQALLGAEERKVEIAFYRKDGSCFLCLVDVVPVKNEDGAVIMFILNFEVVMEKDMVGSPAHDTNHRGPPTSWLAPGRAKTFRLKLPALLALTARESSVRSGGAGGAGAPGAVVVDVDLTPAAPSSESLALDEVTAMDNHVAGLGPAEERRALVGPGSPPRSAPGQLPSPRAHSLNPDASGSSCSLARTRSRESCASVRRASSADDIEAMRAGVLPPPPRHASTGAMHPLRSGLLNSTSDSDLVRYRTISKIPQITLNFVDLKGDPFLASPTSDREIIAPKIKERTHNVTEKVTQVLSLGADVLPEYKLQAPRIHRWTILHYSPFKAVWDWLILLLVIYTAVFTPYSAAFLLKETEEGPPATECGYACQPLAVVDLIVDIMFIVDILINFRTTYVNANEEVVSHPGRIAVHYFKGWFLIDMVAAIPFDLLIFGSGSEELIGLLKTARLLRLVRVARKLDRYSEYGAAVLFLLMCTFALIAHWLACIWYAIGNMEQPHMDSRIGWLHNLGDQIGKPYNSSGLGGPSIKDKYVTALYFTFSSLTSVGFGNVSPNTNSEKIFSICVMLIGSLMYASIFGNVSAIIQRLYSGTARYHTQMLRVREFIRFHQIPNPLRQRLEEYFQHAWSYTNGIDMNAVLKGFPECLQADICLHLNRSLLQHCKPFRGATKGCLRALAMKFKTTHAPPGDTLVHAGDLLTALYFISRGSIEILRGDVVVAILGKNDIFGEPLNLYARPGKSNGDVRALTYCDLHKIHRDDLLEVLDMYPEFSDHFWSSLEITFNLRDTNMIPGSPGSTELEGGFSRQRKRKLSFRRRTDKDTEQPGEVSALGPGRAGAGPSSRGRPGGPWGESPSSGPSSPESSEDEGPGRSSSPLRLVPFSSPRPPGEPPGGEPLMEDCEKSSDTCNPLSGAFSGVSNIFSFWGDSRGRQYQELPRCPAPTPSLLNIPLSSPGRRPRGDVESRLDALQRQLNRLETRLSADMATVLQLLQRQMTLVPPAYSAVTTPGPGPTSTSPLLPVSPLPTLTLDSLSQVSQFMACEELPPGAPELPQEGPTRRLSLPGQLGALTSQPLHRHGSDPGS

This test concerns the target human ether-à-go-go-related gene (hERG) potassium channel (human, UniProt Q12809). As to the kind of experiment: primary screen, population patch clamp on CHO cells stably expressing hERG.
With `CCCCCSc1cc(OC)c(CCNC)cc1OC.O=C(O)/C=C\C(=O)O`, the “hERG current change (%, negative = inhibition) at 1uM” value worked out at 2.11%.
Under `COc1cccc2cc(C(C)N(CCCN3CCOCC3)C(=S)Nc3cccc(C)c3)oc12` (stereo not drawn) stands 10.9%; under `CN(CCO)c1ccc(-c2n[nH]c(=O)c3ccccc23)cc1[N+](=O)[O-]`, 2.5%; under `COc1ccc(N2C(=O)C3CCCN3C2c2cccc(F)c2)cc1Cl` (stereo not drawn), 0.382%.
Next, `N#C/C(=C\c1cc2ccccc2nc1N1CCOCC1)C(=O)Nc1ccc(N2CCOCC2)cc1`: 5.8%.
As to `Cc1cc2ccccc2c(=O)n1CC(=O)N1CCN(c2cccc(Cl)c2)CC1`, the “hERG current change (%, negative = inhibition) at 1uM” value was 1.89%.
Under `C/C(NC(=O)c1cccs1)=C1\C(=O)C[C@@H]2[C@H]1C2(C)C` stands 7.2%; under `CC(C)OCCCNC(=O)c1c(N)n(CC2CCCO2)c2nc3ccccc3nc12` (stereo not drawn), 6.34%; under `COC(=O)c1ccccc1Oc1ccc(NC(=O)C(C)(C)CCl)cc1`, -12.3%.
Under `Cc1cc(=O)[nH]c(N2CCc3ccccc3C2)n1` stands 3.65%.
As to `Cc1cccc(NC(=O)c2c(F)c(F)c(F)c(F)c2F)c1`, the “hERG current change (%, negative = inhibition) at 1uM” value is -0.482%.
Under `Cc1nn(Cc2ccc(Cl)cc2Cl)c(C)c1NC(=O)NC12CC3CC(CC(C3)C1)C2` stands 12.8%; under `Cn1nc(-c2ccc(C(=O)Nc3ccc(F)cc3)cc2)c2ccccc2c1=O`, 1.3%; under `COc1ccc(/C=N/N=C2\SC(CC(=O)O)C(=O)N2c2ccccc2)c(OC)c1` (stereo not drawn), -3.43%.
In the case of `CCC(C)[C@H](N)c1cn([C@@H](Cc2cc3ccccc3[nH]2)C(=O)N2CCNCC2)nn1.Cl` (stereo partly drawn), the “hERG current change (%, negative = inhibition) at 1uM” value was determined as 12.3%.
Next, `CCOC(=O)CSC1=C(C#N)C(=O)NC(c2ccc(OC)cc2)S1` (stereo not drawn): 16.4%; `CN(CC(=O)NC(=O)NC1CCCCC1)Cc1ccccc1`: 7.61%.
In the case of `Cc1ccc(-n2c(SCC(=O)Nc3ccc4c(c3)OCO4)nnc2-c2ccccn2)cc1`, the “hERG current change (%, negative = inhibition) at 1uM” value turned out to be 8%.
Next, `O=C(Nc1cccc(S(=O)(=O)N2CCCCC2)c1)c1ccc([N+](=O)[O-])o1`: 3.44%; `O=C(CCC(=O)c1cccs1)NCc1ccccc1`: 12.7%; `CCn1c(N2CCN(C(=S)NCC(C)C)CC2)nc2ccccc21`: -13.8%.
Next, `COc1cc(SC)ccc1C(=O)Nc1ccccn1`: 3.02%; `O=C(CCCSc1nc2ccccc2[nH]1)NC(c1ccccc1)c1ccccc1`: -8.62%.
Turning to `CC(C)n1ncc2c(C(=O)Nc3ccc(S(N)(=O)=O)cc3)cc(C3CC3)nc21`, the “hERG current change (%, negative = inhibition) at 1uM” value was 5.76%.
For `NC(=O)N/N=C/c1c(Sc2nnnn2-c2ccccc2)nc2ccccn2c1=O`, the “hERG current change (%, negative = inhibition) at 1uM” value is on record as 3.37%.
Next, `Brc1ccc(-c2csc(-c3c[nH]c4ccccc34)n2)cc1`: 12.1%.
As to `O=C(CSc1nc2ccccc2c(=O)n1NC(=O)Cc1ccccc1)NCc1ccccc1Cl`, the “hERG current change (%, negative = inhibition) at 1uM” value was -1.02%.
Under `COc1ccc(C2=NN(C(=O)c3ccccc3C(=O)O)C(c3ccccc3O)C2)cc1` (stereo not drawn) stands 0.318%.
Under `O=C(CCS(=O)(=O)Cc1ccc(Cl)cc1)NCCCN1CCOCC1` stands 0.677%.
Next, `COP(=O)(c1ccc(N(C)C)cc1)C(O)c1ccccc1` (stereo not drawn): 9.86%.
With `CC1(C)Cc2c(C#N)c(N3CCCC3)nc(-c3ccco3)c2CO1`, the “hERG current change (%, negative = inhibition) at 1uM” value is recorded as 16.2%.
On to `O=C1OC(/C(=C\Nc2cc(Cl)ccc2O)[N+](=O)[O-])c2ccccc21` (stereo not drawn), for which the “hERG current change (%, negative = inhibition) at 1uM” value is recorded as 11.8%.
Next, `Cc1ccc(S(N)(=O)=O)c(C)c1N1CCCC1=O`: 18.7%.
Take `CN1CCN(S(=O)(=O)c2ccc(NC(=S)NC(=O)C3CCCC3)cc2)CC1`: the “hERG current change (%, negative = inhibition) at 1uM” value is recorded as 14.4%.
Under `O=S(=O)(Nc1ncccn1)c1ccc(NC(=S)Nc2ccccc2Cl)cc1` stands 14.3%; under `Br.O=C(CN1CCCCC1)c1ccccc1F`, 15.5%; under `Cc1cc(C2C(C#N)=C(N)OC3=C2C(=O)CC(C)(C)C3)c(C)s1` (stereo not drawn), 0.138%.
On to `O=C(O)/C=C/C(=O)NC1CCS(=O)(=O)C1` (stereo not drawn), for which the “hERG current change (%, negative = inhibition) at 1uM” value is recorded as 5.36%.
Under `CC(NC(=S)Nc1ccccc1Cl)C(c1cccs1)N1CCCC1` (stereo not drawn) stands -3.4%.
Take `CCOC(=O)c1cccc(NC(=O)CSc2nnc(COc3ccccc3C)o2)c1`: the “hERG current change (%, negative = inhibition) at 1uM” value is 8.63%.
Turning to `CC(C)(C)[C@@H]1C=C(C(=O)Nc2ccccc2)O[C@H](OCc2ccc(CO)cc2)C1`, the “hERG current change (%, negative = inhibition) at 1uM” value is given as 15.4%.
Consider `O=C(COC(=O)c1ccc[nH]c1=O)c1ccc(Cl)s1`, for which the “hERG current change (%, negative = inhibition) at 1uM” value is 11.7%.
For `COc1ccc(CCNC(=O)CSc2nc(C)nc3c2oc2ccccc23)cc1OC`, the “hERG current change (%, negative = inhibition) at 1uM” value was determined as 1.3%.
Next, `CSc1cccc(CN2CCC(CCC(=O)NC3CC3)CC2)c1`: -37.9%; `Cc1ccc2cc(/C=C/C(=O)c3ccco3)c(Cl)nc2c1`: 13.8%.
Next, `Cc1cc(NS(=O)(=O)c2ccc(NC(=O)c3cccnc3)cc2)nc(C)n1`: -0.403%.
Under `Cc1c(Cl)cccc1NC(=O)CC(C(=O)O)C1CCCO1` (stereo not drawn) stands 0.279%; under `COc1ccc(OC)c(CN2CCN(Cc3cccc4ccccc34)CC2)c1.O=C(O)C(=O)O`, -4.64%; under `Cc1oc2nc(SCCCC(=O)NCCO)nc(N)c2c1C`, 4.63%.
For `CCC(C)[C@H](NC(=O)Nc1ccc2c(c1)OCCO2)C(=O)OC` (stereo partly drawn), the “hERG current change (%, negative = inhibition) at 1uM” value is listed as 4.48%.
In the case of `Cc1nnc(SCC(=O)N/N=C/c2cn(-c3ccccc3)nc2-c2ccccc2)n1-c1ccccc1`, the “hERG current change (%, negative = inhibition) at 1uM” value is 7.43%.
Next, `COc1ccc(CC(=O)N2CCN(c3ccc(F)cc3)CC2)cc1`: 8.38%; `CCc1ccc(N(C(C)=O)c2nc(CCl)cs2)cc1`: 9.33%; `COC(=O)c1cn(-c2ccc(F)cc2)c(=O)c2ccccc12`: 5.17%.
Next, `COc1c(N2CCN(C(=S)NCc3ccccc3)C(C)C2)c(F)cc2c(=O)c(C(=O)O)cn(C3CC3)c12` (stereo not drawn): 4.87%.
Next, `CC(=O)c1cc(CN2CCC(n3nccc3NC(=O)c3ccccc3C)CC2)cs1`: -15.8%; `COc1ccc(/C=C2\CN(Cc3ccccc3)C/C(=C\c3ccc(OC)cc3)C2=O)cc1`: 8.07%.
As for `CC1CC(C)CN(CC(=O)N2CCc3[nH]c4ccccc4c3C2)C1` (stereo not drawn), the “hERG current change (%, negative = inhibition) at 1uM” value was -7.73%.
Next, `CCN(CC)S(=O)(=O)c1cccc(C(=O)NNC(=O)c2ccc3[nH]c(=O)c(=O)[nH]c3c2)c1`: 7.86%; `Cc1ccccc1OCCN1C(=O)C(=O)c2cccc(C)c21`: 14.5%; `O=C(NC1=NCCS1)c1cc(-c2cccs2)nc2ccccc12`: 9.11%.
Next, `CC(=O)Nc1ccc(Nc2nc3c(S(=O)(=O)c4ccc(C)c(C)c4)nnn3c3ccccc23)cc1`: 6.05%; `CC1CCCCC1NC(=O)C1CCC(CNS(=O)(=O)c2ccc(F)cc2)CC1` (stereo not drawn): 8.79%; `O=C(CCl)NC1(C(F)(F)F)C(=O)Nc2c1c(=O)[nH]c(=O)n2-c1ccccc1` (stereo not drawn): 12.9%.
Under `COc1ccc(C(=O)OCCCOC(=O)c2ccc(OC)cc2OC)c(OC)c1` stands 6.84%; under `COc1cc(/C=C2/C(=O)NN(c3ccc(Cl)cc3)C2=O)cc(OC)c1O`, 8.83%; under `CCc1nnc(NC(=O)CS(=O)(=O)Cc2ccccc2)s1`, 13.9%.
On to `C/C(CC(=O)NC1CCCCC1)=N\NC(=O)c1ccccn1`, for which the “hERG current change (%, negative = inhibition) at 1uM” value was determined as 17.8%.
Next, `COc1ccc(CCNC(=O)c2cc(-c3ccncc3)nc3ccc(S(=O)(=O)N4CCOCC4)cc23)cc1OC`: 2.32%; `NC(=O)C1CCCNC1` (stereo not drawn): 8.59%; `COc1ccc(NC(=O)CN(C)C(=O)c2n[nH]c3ccccc23)cc1`: 17.4%.
On to `CCCCC(=O)Nc1cccc(NC(=S)NC(=O)COc2ccccc2Cl)c1`, for which the “hERG current change (%, negative = inhibition) at 1uM” value worked out at 10.9%.
Under `CC(C)C(NS(=O)(=O)c1ccc2c(c1)C(C)(C)C(=O)N2C)C(=O)NCc1ccc(F)cc1` (stereo not drawn) stands -0.523%; under `O=C(/C=C/c1ccccc1Cl)c1cccnc1`, 6.53%.
Next, `Cc1cccc(NC(=O)C(C)SCc2ccccc2)c1` (stereo not drawn): 8.11%.
Next, `COc1ccc(S(=O)(=O)N2CCN(C(=O)CCc3c[nH]c4ccccc34)CC2)cc1`: 1.3%; `COc1ccc(/C=C2\CCC(C3CCCC3)C2=O)cc1Cn1cccn1` (stereo not drawn): 7.58%.
For the molecule `CC(C)(C)C(=O)Oc1cccc(Nc2ncnc3ccccc23)c1`, the “hERG current change (%, negative = inhibition) at 1uM” value was determined as 12.8%.
Next, `O=C1CC(c2ccccc2)CC(O)=C1C=NCCc1ccccc1` (stereo not drawn): 9.41%; `O=C(Nc1cccc2[nH]ncc12)NS(=O)(=O)c1ccccc1`: 16.5%.
In the case of `O=C(CNC(=O)c1cccc(F)c1)N/N=C/c1ccc(O)c([N+](=O)[O-])c1`, the “hERG current change (%, negative = inhibition) at 1uM” value was 15.4%.
On to `Brc1ccccc1OCCCn1cnc2ccccc21`, for which the “hERG current change (%, negative = inhibition) at 1uM” value is listed as 2.78%.
Under `O=C(Cc1ccc(Cl)cc1Cl)OCC(=O)N1CCN(C(=O)c2ccco2)CC1` stands -18.5%.
As to `CCOC(=O)c1c(-c2ccc(-c3ccccc3)cc2)csc1NC(=O)CCC(=O)O`, the “hERG current change (%, negative = inhibition) at 1uM” value is 11.7%.
Next, `COc1ccccc1-c1cc(C(=O)NCCCN2CCOCC2)no1`: 2.15%.
Under `Cc1ccc(NC(=O)N2CCC(=O)N2)cc1` stands 19.2%.
`O=C(CSc1ccccc1)Nc1ccc2c(c1)OCO2`: the “hERG current change (%, negative = inhibition) at 1uM” value turned out to be 11.7%.
